Variants at the background level are over-represented here.
B1: tRNA (parent)
chain: CUCUCGGUAGCCAAGUUGGUUUAAGGCGCAAGACUUUAAUUUAUCACUACGAAAUCUUGAGAUCGGGCGUUCGACUCGCCCCCGGGAGAUUUUUUCCUCGAGCAA

Variants of: B1
Test: nonsense suppression (GFP-seq) (ratio to wild type); higher = more function; SUP4oc tRNA, yeast GFP reporter sort-seq
In short: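 Nonsense suppression (GFPSEQ) is the median GFP/RFP ratio of each sorting bin, weighted by the variant's estimated share of cells in that bin and expressed relative to the unmutated parent tRNA. Yeast strains carried genome-integrated variants of an ochre-suppressor tRNA from a library with ~3% random mutations, plus a galactose-driven GFP ochre reporter and RFP, and were grown in raffinose/galactose medium containing 80 mg/L adenine. Cells were sorted into GFP/RFP bins, each bin was Illumina-sequenced (phred ≥30), and variants were kept only with ≥100 reads and ≥30 cells.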

Nonsense suppression, 0.0802:
G6A A13G U20G C34A G73A

Nonsense suppression, 1.15:
C5U G84A

Nonsense suppression, 0.0458:
G6A A13U

Nonsense suppression, ≤ 0.026:
C5U A62G
C5U A62G C77G C80G
C5U A62U G69C A87U
C5U A74C
C5U A74U U76A
C5U A89C
C5U C11A G61C G84C G85A
C5U C11G C12G G15U U71A
C5U C11U
C5U C11U G66A
C5U C11U G78A
C5U C11U U17C U70A
C5U C11U U76A C79G
C5U C12A A60C C64G
C5U C12G A13G C29A
C5U C12G G59C
C5U C12U C81U
C5U C12U U21A G66C
C5U C12U U21C
C5U C27A
C5U C27A A30C U57G A87U
C5U C27G G32U C83G
C5U C34U
C5U C56G G69U G86U
C5U C56U A60C C68G
C5U C68A
C5U C68G A87U
C5U C77A C80A
C5U C80A
C5U C81G
C5U G6A C11A G25A
C5U G6C
C5U G6C G15U C29A
C5U G6U U16A
C5U G7C A14C G88A
C5U G7U C77U
C5U G10C
C5U G10C A23C A30U G78C
C5U G10U A14C A87C
C5U G10U G15C C34G U63A
C5U G10U U58A A60C G66C U76A
C5U G15A A31C U35C
C5U G15A U21A C34G G61U
C5U G15C
C5U G15C U16A A23G U58G
C5U G15U U55G U70C
C5U G18A
C5U G18A G32A
C5U G18U U21C A60C
C5U G19A U57C G61U
C5U G19C
C5U G19U A30U U55C
C5U G19U A54G U58G
C5U G26A C27G G28C U55C U58G U70A G88U A89G
C5U G26A C34A
C5U G26C G65C U76A
C5U G28A A30G
C5U G28C A30U C34A C72A
C5U G32A
C5U G32C G66U C68U
C5U G32U U70A C75A
C5U G59A U76G
C5U G59U G66C U71G A74C
C5U G61C G67U A74G
C5U G65A C82A
C5U G66C U70G
C5U G66U G78A
C5U G69A
C5U G73A
C5U G78A
C5U G88U
C5U U8A C11A A33G C83U
C5U U8C G10A G15U A33G
C5U U8C G65A
C5U U8G
C5U U8G C11A A24C A89U
C5U U8G G88A
C5U U16A C64A G67C G88A
C5U U17A G86A
C5U U17C G19U U20G G25U
C5U U20C A23C U63C A89U
C5U U20C U21C G61A
C5U U21A
C5U U21A A23G U70A
C5U U21A C34U
C5U U21A U57C A62G
C5U U22A A24G U58G
C5U U22A G61C
C5U U22G
C5U U22G C27U
C5U U22G C34A
C5U U35A U58G C72A
C5U U57C G84A
C5U U58A U63G
C5U U63C G65U
C5U U70C
G6A
G6A A9C C56G U76A C82G C83A
G6A A9U
G6A A9U A24G U63A
G6A A9U A33U A54G U58A G85A
G6A A9U G15U G18A C77A
G6A A9U G65C
G6A A13G
G6A A13G A62C U63G U71C G86A
G6A A13G U17A
G6A A14G A62U
G6A A14G G25U G86A
G6A A23G U58G G73C G84C
G6A A23U G85A
G6A A23U U58G
G6A A30G C80A
G6A A30U G84C G88U
G6A A31C A60C C72A G86A
G6A A31G
G6A A33G C83A A89C
G6A A33U
G6A A62C G67U
G6A A62U
G6A C11A A33G
G6A C11G G18C U57G G65U
G6A C11G U17A
G6A C12G
G6A C27G A54C U57C
G6A C64G C79A
G6A C75A
G6A C80U
G6A G7A A30U A54C U58G G59A
G6A G7A G69U
G6A G10A A33G
G6A G10U G15A G25U G59C
G6A G15A G32C
G6A G15A G61A
G6A G18A
G6A G18U G28A C34U
G6A G19C G78A
G6A G19U U55C
G6A G25C C72A
G6A G25U A33G
G6A G26A
G6A G26A G59U C72U
G6A G26U C83A
G6A G61C C79A
G6A G66C
G6A G69C
G6A G78C
G6A G85C
G6A U8A U35A G69A
G6A U8G
G6A U8G C80G
G6A U8G G19U U57C U70C G86A G88A
G6A U16A U35A
G6A U16G C68U G84U A87G
G6A U16G C68U G84U A87U
G6A U17A G59U
G6A U17A G84U A89C
G6A U17C
G6A U20A A30C G88A
G6A U20C
G6A U20C U22A G28U G84C
G6A U20G
G6A U21G A33G C83A

Nonsense suppression, 0.0314:
C5U G61A

Nonsense suppression, 0.08:
C5U G85A
